Laboratory results published in the supplement of paper PMC3334620.
In all, about 33,000 sequences were measured (“E-score (-0.5 to 0.5)”: median about -0.017, highest 2% from about 0.3 on). The list shows a part of the results.

Molecular target: T1, Sut1 (UniProt P53032)
T1 sequence: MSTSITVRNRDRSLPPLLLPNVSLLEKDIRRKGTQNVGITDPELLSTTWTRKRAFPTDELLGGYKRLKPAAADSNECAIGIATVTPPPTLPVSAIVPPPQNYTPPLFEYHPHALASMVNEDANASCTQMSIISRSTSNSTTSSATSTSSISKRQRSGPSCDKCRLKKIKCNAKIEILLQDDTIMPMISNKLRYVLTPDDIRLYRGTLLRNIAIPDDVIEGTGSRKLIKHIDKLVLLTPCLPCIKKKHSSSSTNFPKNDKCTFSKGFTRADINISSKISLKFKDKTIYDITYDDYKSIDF
Test: PBM E-score (8-mer binding enrichment) (E-score (-0.5 to 0.5)); higher = stronger / more preferred TF binding; most listed sequences are background and not binding sites
Conditions: protein concentration: 200 nM; construct: GST-full length
Procedure, shortened: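 Yeast transcription factors, full-length or as DNA-binding domains, were expressed with a GST tag using PURExpress in vitro transcription/translation. At about 100-200 nM they were applied to universal all-10-mer Agilent arrays, double-stranded by primer extension on fresh or once-stripped slides. Fluorescent anti-GST detected bound protein, and masliner normalised the scans. E-scores for ungapped eight-base words, pooled with reverse complements, came from the Universal PBM Analysis Suite.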

Sequence | PBM E-score
ATGTCGGG | -0.058
CAGATCGA | -0.19
AGGCCGAG | -0.0213
TGGCTGAA | -0.00757
ACTTTAGC | 0.00521
AGGGGAAC | -0.142
CTCCAAAG | 0.0263
AAGATGCC | -0.0256
AGGTATGG | -0.125
CATAAACC | 0.136
CCTACTCG | -0.128
ATGTTGGA | 0.133
GATACATC | -0.0406
AAAAAACT | 0.198
ATGTCTAC | -0.0126
GGTTTTCA | 0.14
GCTTTCCA | -0.0183
CGTCCTAA | -0.125
CATTTCCC | 0.0629
ATAATGCC | 0.099
TACTCTGA | -0.184
GCGTGCAC | -0.0829

Sequence | PBM E-score
TTCTAAAA | 0.214
GTTAAAAC | 0.194
CATAACGG | -0.0262
GACCTAGA | 0.0551
CGCGTTAC | -0.0482
CCTGTCAG | -0.15
AAGTAGCA | 0.0196
ATGGAACC | -0.176
ACTGCGCC | -0.245
AGGATTTC | -0.101
ACGGGTCT | -0.152
CGAATAGC | -0.0181
AAAATACA | 0.119
CAGTCACC | -0.23
GAAGGGCA | -0.131
AGACAGGG | -0.293
ACAACTTA | -0.00725
ATAACAAA | 0.286
ACCTTGTG | -0.107
GTCCGTTA | 0.376
AGCCTGTG | -0.216
GACTTTAA | 0.179

Sequence | PBM E-score
CACTGCCG | -0.052
ATCTCTAC | -0.0152
CCCCCACG | -0.273
GTCATGCA | -0.101
ACATCGGA | 0.351
CTTCCTGC | -0.281
CAGTGCTA | -0.0723
AAATTAAG | 0.124
AGTTATTA | 0.176
CCATGCGG | -0.132
CTATAACC | -0.00144
AAGGAGAC | -0.103
CGCGTTTA | 0.0625
CGAAGCCG | 0.0348
ACATGCTA | -0.19
CTAATTAC | 0.221
GGTAATAA | 0.188
AGAGTCAA | -0.177
AGCAATAT | 0.0944
AGGTAGCA | -0.0341
CTTGTGGA | -0.172
ATGTACGG | 0.165

Sequence | PBM E-score
CATGGGAA | 0.105
GATGGTAA | -0.0671
AGTTGGCG | -0.0449
GATTATCA | 0.107
GACAGAGA | -0.0478
CGACGTCG | 0.0408
CGAAGTCG | 0.0932
ACCATAGG | -0.3
AATAAAAA | 0.273
GAGTTAGA | 0.0211
ACCCATTA | -0.0414
GTGCTTGA | -0.138
CGAACACG | -0.0386
CCCACGCG | -0.175
AAGGGGCT | -0.119
CAAGTGTG | 0.0173
GCGTATCC | -0.298
CCGATGCG | -0.0426
GGCTTGGA | -0.261
CGGTACGA | -0.198
